# Results taken from PubChem BioAssay AID588342 (National Center for Advancing Translational Sciences (NCATS), 2011).
# Among all 360,000 compounds or so, about 25,000 (6.9%) were called active. Inconclusive results, whose numbers are uncertain, are shown with a selection of clear calls. Calls follow the shape of the dose curve; as a rule, active = well fitted inhibition curve with a large enough effect; inconclusive = small, poorly fitted or top-dose-only effect; inactive = flat fitted curve, though single readings scatter. A potency beside an inconclusive call is a rough fit, not a confirmed value.
# Target: Luciferin 4-monooxygenase (Photinus pyralis) (UniProt P08659)
# UniProt P08659, sequence (P08659 whole entry, looked up): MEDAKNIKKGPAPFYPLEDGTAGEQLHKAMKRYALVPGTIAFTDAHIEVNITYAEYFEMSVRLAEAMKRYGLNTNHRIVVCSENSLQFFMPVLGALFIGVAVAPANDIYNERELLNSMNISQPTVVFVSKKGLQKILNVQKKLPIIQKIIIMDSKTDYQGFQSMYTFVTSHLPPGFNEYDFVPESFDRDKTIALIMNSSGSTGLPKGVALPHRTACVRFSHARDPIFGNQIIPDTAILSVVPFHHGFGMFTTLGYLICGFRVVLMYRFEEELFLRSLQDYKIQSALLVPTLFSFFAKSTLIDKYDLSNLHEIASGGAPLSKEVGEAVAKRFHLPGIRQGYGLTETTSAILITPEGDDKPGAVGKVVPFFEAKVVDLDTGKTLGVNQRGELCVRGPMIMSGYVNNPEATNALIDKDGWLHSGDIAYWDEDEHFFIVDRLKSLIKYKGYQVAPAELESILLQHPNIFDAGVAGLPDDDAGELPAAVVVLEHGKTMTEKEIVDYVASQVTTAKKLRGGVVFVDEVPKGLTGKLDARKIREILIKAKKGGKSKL
# Assay: qHTS profiling assay for firefly luciferase inhibitor/activator using purifed enzyme and Km concentrations of substrates (counterscreen for miR-21 project); also: nearly all actives have a fitted effect of over 55% in size;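 as to activity change, negative = inhibition: plate controls were vehicle for no effect and reference inhibitor for full effect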
# Conditions: purified FLuc, luminescence inhibition; series mostly up to 57.5 µM; activity change, negative = inhibition: at the top concentration
# Summary of the method: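 Biochemical qHTS of compounds, final roughly 60 µM downward over six points, against 10 nM purified firefly luciferase using Km concentrations of substrates (10 uM D-luciferin, 10 uM ATP) in Tris acetate pH 7.5 buffer; luminescence output.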
# Potency is read from the fitted curve at half-maximal effect; tags tell the direction and shape of the fitted curve.
SMILES,Potency,"activity change, negative = inhibition"
CC1CCN(c2ccc3c(c2)S(=O)(=O)c2cccc(C(=O)NCc4cccc(F)c4)c2C3=O)CC1,"inconclusive: 4.47 µM [inhibitor, full curve, poor fit]",
O=C(COC(=O)c1ccc(Br)cc1)NC1CCCC1,"inconclusive: 37.9 µM [inhibitor, partial curve, poor fit]",
Cc1nc(-c2noc(-c3ccccc3Cl)n2)c(C(F)(F)F)o1,active: 15.1 µM,
COc1ccccc1NC(=O)CCC(=O)c1ccc(-c2ccccc2)cc1,"inconclusive: 30.1 µM [inhibitor, single point]",
COc1ccccc1C(=O)NNC(=O)c1ccc(NC(=O)C(C)C)cc1,"inconclusive: 37.9 µM [inhibitor, partial curve, poor fit]",
Cc1c(C(=O)N2CCc3ccccc3C2)sc2nc(-c3ccccc3)cn12,"inconclusive: 26.9 µM [inhibitor, partial curve, poor fit]",
O=C(Nc1ccccc1C(F)(F)F)c1noc2c1CCCC2,"inconclusive: 37.9 µM [inhibitor, partial curve, poor fit]",
COC(=O)NCC(C)OC(=O)Nc1cccc(Cl)c1 (stereo not drawn),"inconclusive: 42.6 µM [inhibitor, partial curve, poor fit]",
CCOc1ccc(C(=O)NCC(=O)OCC(=O)Nc2ccccc2OCC)cc1,active: 23.9 µM,
Clc1ccccc1/C=C/c1nc(-c2cccnc2)no1,active: 1.69 µM,
CCCCc1nc2cc(C(=O)N(C)C(C)c3ccccn3)ccc2o1 (stereo not drawn),"inconclusive: 23.9 µM [inhibitor, partial curve, poor fit]",
Cn1c(CSc2ccccc2)c(C#N)c2ccccc21,"inconclusive: 26.9 µM [inhibitor, single point]",
CCCNC(=O)c1ccc(Cn2cc(-c3ccc(OC)cc3)nc2C(C)N)cc1 (stereo not drawn),"inconclusive: 26.9 µM [inhibitor, partial curve, poor fit]",
CC(=O)N(C)c1ccc(NC(=S)NC(=O)/C=C/c2ccco2)cc1,"inconclusive: 26.9 µM [inhibitor, partial curve, poor fit]",
COc1cccc(C(=O)C2CCCN(C(=O)c3cccc(C#CC(C)(C)O)c3)C2)c1 (stereo not drawn),,inactive: -18.2%
CN(C)S(=O)(=O)n1cc(/C=C(\NC(=O)c2ccccc2Cl)C(=O)NCCN2CCOCC2)c2ccccc21,"inconclusive: 8.49 µM [inhibitor, full curve]",
C/C(CC1CC(C)(C)OC1=O)=N/Nc1nc(-c2ccccc2)cs1 (stereo not drawn),"inconclusive: 19 µM [inhibitor, single point]",
Cn1c(=O)[nH]c(=O)c2c1nc(NN)n2CCOc1ccccc1,"inconclusive: 42.6 µM [inhibitor, partial curve, poor fit]",
Cc1ccc(CSCC(=O)Nc2ccccc2F)cc1,"inconclusive: 23.9 µM [inhibitor, single point]",
COC(=O)c1ccc(NC(=O)C(=O)c2cccn2C)cc1,active: 1.9 µM,
COc1ccccc1NC(=O)Cn1nc2c3cc(F)ccc3n(Cc3cccc(C)c3)cc-2c1=O,,inactive: -1.25%
CC1(C)CCc2nc(SCc3ccccc3)c(C#N)cc2C1,"inconclusive: 23.9 µM [inhibitor, partial curve, poor fit]",
O=C(CSc1nc2ccccc2s1)N/N=C/c1ccccc1C(=O)O,"inconclusive: 21.3 µM [inhibitor, partial curve, poor fit]",

SMILES,Potency,"activity change, negative = inhibition"
O=C(Nc1ccc(-c2csc(-c3ccccc3)n2)cc1)c1ccccc1,,inactive: -0.0369%
Cc1cc(C)cc(NS(=O)(=O)c2c(C)nc3scc(C)n3c2=O)c1,,inactive: -0.512%
CC(=O)NC(CC(=O)Nc1nc(-c2ccccc2)c(C(C)=O)s1)c1ccccc1 (stereo not drawn),,inactive: 3.71%
CN1C(=O)c2ccc(C(=O)Nc3ccc4c(c3)OCO4)cc2C1=O,active: 2.39 µM,
Cc1cc(C)c2oc(C(=O)Nc3ccc(S(=O)(=O)Nc4ncccn4)cc3)cc(=O)c2c1,,inactive: -16.4%
O=C(CCN1C(=O)C2CCCCC2C1=O)Nc1nc2ccc(F)cc2s1 (stereo not drawn),active: 0.849 µM,
O=C(Nc1ccc(C(=O)N2CCOCC2)cc1)c1cccs1,"inconclusive: 26.9 µM [inhibitor, partial curve, poor fit]",
COc1ccc(CNC(=O)c2sc3nc4c(c(C(F)(F)F)c3c2N)CCC4)cc1,"inconclusive: 21.3 µM [inhibitor, partial curve, poor fit]",
CS(=O)(=O)c1ccc(Cl)c(NC(=O)CSc2n[nH]c(-c3cccs3)n2)c1,"inconclusive: 20 µM [inhibitor, partial curve, poor fit]",
O=Nc1onc(-c2ccc([N+](=O)[O-])cc2)c1NO,"inconclusive: 30.1 µM [inhibitor, partial curve, poor fit]",
Cc1ccnc(NC(=O)Nc2cccc(F)c2)c1,active: 0.953 µM,
FC(F)(F)c1nc2ccccc2nc1N/N=C/c1ccc(Cl)cc1,"inconclusive: 6.01 µM [inhibitor, partial curve]",
O=C(COc1ccccc1Cl)Nc1cc(NC(=O)COc2ccccc2Cl)cc(C(=O)O)c1,"inconclusive: 23.9 µM [inhibitor, single point]",
O=C(Nc1ccccc1)N(CCN1CCOCC1)Cc1ccccc1F,"inconclusive: 26.9 µM [inhibitor, single point]",
c1ccc(-c2nc(NCc3cccnc3)c3oc4ccccc4c3n2)cc1,"inconclusive: 26.9 µM [inhibitor, single point]",
CC(=O)Nc1ccc(N2CCC(C)CC2)c([N+](=O)[O-])c1,"inconclusive: 21.3 µM [inhibitor, partial curve, poor fit]",
O=C1c2cccc3c(O)ccc(c23)C(=O)N1c1ccc(Cl)cc1,active: 16.9 µM,
O=C(COc1ccc(Cl)cc1Cl)Nc1c(-c2cccs2)nc2ccccn12,,inactive: 7%
O=C(NCCc1ccccc1)c1ccc(-c2ccccc2C(F)(F)F)o1,"inconclusive: 23.9 µM [inhibitor, partial curve, poor fit]",
CC(=O)Nc1ccn(Cc2c(F)cccc2Cl)n1,"inconclusive: 30.1 µM [inhibitor, partial curve, poor fit]",
O=C(Cn1cc(SCc2ccc(F)cc2)c2ccccc21)N1CCCCC1,,inactive: -14.8%
CCCN(CC1CC1)C(=S)NC(=O)c1cc(Br)ccc1Cl,,inactive: -8.13%
COc1ccc(NC(=O)Cn2c(=O)n(CCCCCC(=O)NCc3ccc4c(c3)OCO4)c(=O)c3sccc32)cc1Cl,,inactive: -7.55%

SMILES,Potency,"activity change, negative = inhibition"
CCSc1cc(N2CCCC2)nc(-c2ccccc2Cl)n1,,inactive: 1.38%
O=C(Nc1cccc(C(=O)OCc2cc(=O)n3c4c(sc3n2)CCCC4)c1)c1ccc(Cl)cc1,"inconclusive: 19 µM [inhibitor, partial curve, poor fit]",
CCCn1cnc2cc(NCc3ccccc3O)ccc21,"inconclusive: 16.9 µM [inhibitor, partial curve]",
CO/N=C(/CNC(=O)c1ccccc1Cl)c1ccc(Cl)cc1,"inconclusive: 26.9 µM [inhibitor, single point]",
CCC(=O)Nc1c(C(=O)Nc2ccc3c(c2)OCCO3)oc2ccccc12,"inconclusive: 26.9 µM [inhibitor, partial curve, poor fit]",
CCOc1cccc(C(=O)Nc2ccc3oc(-c4ccncc4)nc3c2)c1,"inconclusive: 16.9 µM [inhibitor, partial curve, poor fit]",
COc1cccc(/C=N/Nc2ccccc2C(=O)O)c1O,active: 1.35 µM,
Cc1ccc(OCCNC(=O)c2ccc3c(c2)OCO3)cc1,"inconclusive: 23.9 µM [inhibitor, partial curve]",
Cc1c(-c2cccc(NC(=O)c3cccs3)c2)nc2ncccn12,"inconclusive: 30.1 µM [inhibitor, partial curve, poor fit]",
Cc1nnc(N/N=C/c2ccccc2O)n1N,"inconclusive: 30.1 µM [inhibitor, partial curve, poor fit]",
Cc1nc2ccccc2n1C(=O)N(C)C,,inactive: 4.44%
CNC(=O)c1c(NC(=O)c2ccc3ncsc3c2)sc(C)c1C,"inconclusive: 9.53 µM [inhibitor, partial curve, poor fit]",
COc1ccccc1C(=O)NNC(=O)c1ccccc1,active: 9.53 µM,
Cc1ccc(NC(=O)COc2ccccc2C#N)cc1S(=O)(=O)N1CCCCCC1,"inconclusive: 30.1 µM [inhibitor, partial curve, poor fit]",
Cc1cc(C)n2nc(C(=O)Nc3ccc4c(c3)OCO4)cc2n1,active: 4.78 µM,
COc1ccc(C(=O)n2nc(-c3cccnc3)nc2NCc2ccccc2)cc1OC,"inconclusive: 42.6 µM [inhibitor, partial curve, poor fit]",
COc1cccc(-c2cc(=O)c3cc(NC(C)=O)ccc3[nH]2)c1,"inconclusive: 21.3 µM [inhibitor, single point]",
COc1ccc(-c2nc(CN3CCC(C(=O)NCc4ccc(C)cc4)CC3)c(C)o2)cc1OC,,inactive: -3.21%
CCOC(=O)c1csc(COc2ccc(OC)cc2)n1,"inconclusive: 21.3 µM [inhibitor, partial curve, poor fit]",
N/C(=N\OC(=O)Cc1cccs1)c1ccc([N+](=O)[O-])cc1,"inconclusive: 23.9 µM [inhibitor, partial curve]",
O=C(Nc1ccccn1)c1sc2cccc(F)c2c1Cl,active: 0.379 µM,
NC(=O)c1c(NC(=O)CN2CCCC2)sc2c1CCCC2,"inconclusive: 26.9 µM [inhibitor, partial curve, poor fit]",
